This is an account of results in PubChem BioAssay AID1508642 (National Center for Advancing Translational Sciences (NCATS), 2021).

Molecules are shown by their SMILES. Among all 43,000 compounds or so, about 200 (0.47%) were called active. About 12% were inconclusive and are not listed. The call rests on the fitted dose curve; in most records, active means well fitted cell-killing curve with a large enough effect; inconclusive means small, poorly fitted or top-dose-only effect, or effect the other way; inactive means flat fitted curve, though single readings scatter. Some of the results follow.
On the % scale 0 is the no-effect control and ±100 the full control effect.

The nature of the assay: Cell viability qHTS assay in S16 Pmp22-F2sN cells. Further: nearly all actives have a fitted effect of over 65% in size. Particulars: S16 Pmp22-F2sN Schwann cells (luciferase reporters placed in the Pmp22 gene) viability, CellTiter-Glo, 24 h; series mostly up to 57.5 µM; activity change, negative = cytotoxicity: at the top concentration. The procedure, abridged: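 CellTiter-Glo counter-screen, qHTS, 1536-well. Cells: S16(c9) Pmp22-F2sN, 500-1,000/well in DMEM + 10% FBS. Cpd 23 nL pin transfer, 24 h, 37C/5% CO2. Read: luminescence, CCD imager.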
(In general: Quantitative high-throughput screening tests each substance at several concentrations.)
For the molecule `Cc1ccc(OCc2cc(=O)n3c4c(sc3n2)CCCC4)cc1C`, the “activity change, negative = cytotoxicity” value is inactive: 12.3%.

Turning to `COc1ccc(NC(=O)c2oc3ccccc3c2NC(=O)C23CC4CC(CC(C4)C2)C3)cc1`, the “activity change, negative = cytotoxicity” value is inactive: 0.235%.

As to `CCOc1ccccc1CNC(=O)c1ccc2c(c1)nc1n2CCC(C)C1` (configuration not stated), the “activity change, negative = cytotoxicity” value is inactive: 2.79%.

In the case of `Nc1ncc(S(=O)(=O)Nc2ccc(OC(F)(F)F)cc2)cn1`, the “activity change, negative = cytotoxicity” value is inactive: 1.22%.

As to `CC(=O)c1ccc(N2C(=O)Nc3ccccc3S2(=O)=O)cc1`, the “activity change, negative = cytotoxicity” value was inactive: 9.28%.

`Cc1ccc(CSc2cn(CCNC(=O)c3cccs3)c3ccccc23)cc1`: the “activity change, negative = cytotoxicity” value was inactive: 1.24%.

As to `Cc1ccc(N2CC(NC(=O)c3ccccc3Br)CC2=O)cc1` (configuration not stated), the “activity change, negative = cytotoxicity” value was inactive: -1.77%.

Turning to `Cc1ccccc1Cn1c(=O)n(CCCCCC(=O)NCc2ccc3c(c2)OCO3)c(=O)c2sccc21`, the “activity change, negative = cytotoxicity” value was inactive: 13%.

For the molecule `O=C(Cn1ncc2c3ccccc3n(Cc3cccc(Cl)c3)c2c1=O)NCCC1=CCCCC1`, the “activity change, negative = cytotoxicity” value is inactive: -3.38%.

Regarding `CCOc1ccc(C(=O)NCCc2sc(-c3ccc(F)cc3)nc2C)cc1`, the “activity change, negative = cytotoxicity” value is inactive: 3.13%.

In the case of `CCOC(=O)c1ccc(NC(=O)CN2C(=O)c3cccnc3Sc3ccccc32)cc1`, the “activity change, negative = cytotoxicity” value is inactive: -11.2%.

For `COc1ccc(Nc2ncc(C(=O)N3CCN(c4ccccc4OC)CC3)c3ccccc23)cc1`, the “activity change, negative = cytotoxicity” value was inactive: -28.8%.

`CCOc1ccc(NC(=O)Nc2c[nH]c(=O)[nH]c2=O)cc1`: the “activity change, negative = cytotoxicity” value is inactive: 2.28%.

Turning to `Cn1c(SCc2ccccc2Cl)nc(=O)c2c1NC(=O)CC2c1cc(F)ccc1F` (configuration not stated), the “activity change, negative = cytotoxicity” value was inactive: -3.72%.

`CCN(CC)c1ccc(CNS(=O)(=O)c2cc3c(cc2C)NC(=O)CO3)cc1`: the “activity change, negative = cytotoxicity” value is inactive: -5.28%.

As for `COc1ccc(NC(=O)CSc2ncc3c(n2)-c2ccccc2N(C)S3(=O)=O)cc1Cl`, the “activity change, negative = cytotoxicity” value was inactive: 15.8%.

On to `CCCN1C(=O)c2oc3cc(C)cc(C)c3c(=O)c2C1c1ccc(F)cc1` (configuration not stated), for which the “activity change, negative = cytotoxicity” value is inactive: 9.98%.

Consider `CCN(CC)CCCNC(=O)CCc1c(C)nc2c(c1C)c(=O)n(C)c(=O)n2C`, for which the “activity change, negative = cytotoxicity” value is inactive: 3.94%.

With `Cc1ccc(C)c(NC(=O)c2cnc3sc(N4CCOCC4)nn3c2=O)c1`, the “activity change, negative = cytotoxicity” value was inactive: -0.596%.

Regarding `COc1ccc(-c2cc(C(F)(F)F)nc(SCC(=O)Nc3ccc(O)cc3)n2)cc1OC`, the “activity change, negative = cytotoxicity” value is inactive: 7.69%.

On to `Cc1ccc(NC(=O)c2cccc(NC(=O)N3CCSc4ncccc43)c2)cc1F`, for which the “activity change, negative = cytotoxicity” value was inactive: 10.2%.

Take `CCOc1ccc(CNC(=O)c2ccc(NC(=O)N3CCSc4ncccc43)cc2)cc1`: the “activity change, negative = cytotoxicity” value was inactive: -3.64%.

Consider `COc1ccc(-c2nc3cc(NC(=O)COc4ccc(C)c(C)c4)ccc3o2)cc1`, for which the “activity change, negative = cytotoxicity” value was inactive: 1.99%.

With `Cc1cc(=O)c2cc(C(=O)Nc3cccc(C)c3C)ccc2[nH]1`, the “activity change, negative = cytotoxicity” value is inactive: -1.91%.

Regarding `O=C(Cn1ccc2cc(S(=O)(=O)N3CCCCCC3)ccc21)NCc1cccc(Cl)c1`, the “activity change, negative = cytotoxicity” value was inactive: 5.01%.

For `CN(C)c1ccc(CNC(=O)CCCN2C(=O)CCn3nc(-c4cn(C)c5ccccc45)cc32)cc1`, the “activity change, negative = cytotoxicity” value is inactive: -19.1%.

Regarding `COCCn1c(C)cc(O)c(C(c2ccccc2Cl)N2CCCCC2)c1=O` (configuration not stated), the “activity change, negative = cytotoxicity” value was inactive: -8.65%.

Turning to `CCCNc1ncnc2c1c(-c1ccccc1)cn2-c1ccccc1`, the “activity change, negative = cytotoxicity” value is inactive: 0.408%.

On to `CCn1cc(C(=O)N2CCN(c3cccc(C)c3)C(C)C2)c(=O)c2cc(S(=O)(=O)N3CCOCC3)ccc21` (configuration not stated), for which the “activity change, negative = cytotoxicity” value is inactive: 2.03%.

Turning to `COc1ccc(-c2nsc(NC(=O)c3oc4ccccc4c3C)n2)cc1`, the “activity change, negative = cytotoxicity” value was inactive: -6.97%.

For the molecule `COc1ccc(C2=NN(CCC(=O)NCCc3ccccc3)C(=O)CC2)cc1`, the “activity change, negative = cytotoxicity” value was inactive: 1.29%.

For the molecule `COCCn1c(C)cc(O)c(C(c2ccccc2F)N2CCN(c3ccccc3)CC2)c1=O` (configuration not stated), the “activity change, negative = cytotoxicity” value was inactive: 15.1%.

As to `CCc1cccc(-n2nnc(S(=O)(=O)c3ccc(OC)cc3)c2C)c1`, the “activity change, negative = cytotoxicity” value was inactive: 1.53%.

Consider `Cc1ccc(Cn2cc(CCC(=O)NCC(C)c3ccccc3)c3ccccc32)cc1` (configuration not stated), for which the “activity change, negative = cytotoxicity” value is inactive: -5.92%.

On to `Cc1cccc(C)c1NC(=O)C1CCCN1S(=O)(=O)c1cccc2nsnc12` (configuration not stated), for which the “activity change, negative = cytotoxicity” value was inactive: -3.28%.

On to `COc1ccc(NC(=O)Cn2nnc(-c3nc(-c4ccncc4)no3)c2N)cc1OC`, for which the “activity change, negative = cytotoxicity” value was inactive: 6.2%.

Take `Cc1c(NS(=O)(=O)c2ccc(Cl)cc2)c(=O)n(-c2ccccc2)n1C`: the “activity change, negative = cytotoxicity” value is inactive: 3.6%.

In the case of `Cc1cc(C)nc(-n2nc(C)c3c2N(Cc2ccccc2C)C(=O)CC3c2ccc(Cl)cc2)n1` (configuration not stated), the “activity change, negative = cytotoxicity” value is inactive: -8%.

As for `COC(=O)c1ccccc1N(C)S(=O)(=O)c1cc2c3c(c1)CC(=O)N3CCC2`, the “activity change, negative = cytotoxicity” value was inactive: -14.1%.

Turning to `CCc1ccc(NC(=O)Cn2c(=O)nc(-c3ccccc3F)c3cc(Cl)ccc32)cc1`, the “activity change, negative = cytotoxicity” value is inactive: 12.1%.

With `O=C(Nc1ccc(Oc2ccccc2)cc1)c1ccc(F)c(S(=O)(=O)N2CCN(c3ccccc3F)CC2)c1`, the “activity change, negative = cytotoxicity” value was inactive: -14.6%.

Consider `CC(C)CCSc1nnc2n(-c3ccccc3)c(=O)c3c4c(sc3n12)CC(C)CC4` (configuration not stated), for which the “activity change, negative = cytotoxicity” value was inactive: 1.91%.

For the molecule `CCOC(=O)c1c(C)[nH]c(C)c1S(=O)(=O)NCC(=O)NCc1cccc(Br)c1`, the “activity change, negative = cytotoxicity” value was inactive: -2.21%.

For the molecule `O=C(Cn1cc(S(=O)(=O)Cc2cccc(Cl)c2)c2ccccc21)NCc1ccccc1Cl`, the “activity change, negative = cytotoxicity” value is inactive: 0.945%.

In the case of `Cc1ccc2cc3cc(C(=O)N4CCN(c5ccccc5)CC4)sc3nc2c1`, the “activity change, negative = cytotoxicity” value is inactive: 17.6%.

For the molecule `COc1cccc(NC(=O)/C(C#N)=C/c2ccc(-c3ccc(C)cc3)o2)c1`, the “activity change, negative = cytotoxicity” value was inactive: 2.32%.

Take `COc1cccc(C(=O)COC(=O)c2cc(-c3cccs3)nc3ccccc23)c1`: the “activity change, negative = cytotoxicity” value was inactive: 0.595%.

With `Cc1cc(NS(=O)(=O)c2cn(C)c(C)n2)ccc1Br`, the “activity change, negative = cytotoxicity” value was inactive: -1.08%.

Turning to `COc1ccc(C(=O)NCc2nc(-c3cccc(C)c3)no2)cc1OC`, the “activity change, negative = cytotoxicity” value was inactive: -2.44%.

As for `Cc1nc(-c2ccc(S(=O)(=O)NCc3ccc(F)cc3)cc2)co1`, the “activity change, negative = cytotoxicity” value is inactive: -0.0089%.

In the case of `Cc1ccc(C)c(CN2C(=O)c3ccccc3S(=O)(=O)c3ccc(C(=O)NCCc4ccc(Cl)cc4)cc32)c1`, the “activity change, negative = cytotoxicity” value was inactive: -0.717%.

For `CCc1ccccc1NC(=O)C1CCN(c2nc3ccccc3[nH]2)CC1`, the “activity change, negative = cytotoxicity” value was inactive: 8.76%.

As for `Cc1ccc(CCNc2nc3ccccc3c3nc(-c4cccnc4)nn23)cc1`, the “activity change, negative = cytotoxicity” value was inactive: 9.04%.

`COc1cccc(CNC(=O)CCc2c(C)nc3c4c(C)cc(C)nc4nn3c2C)c1`: the “activity change, negative = cytotoxicity” value is inactive: -0.299%.

In the case of `Cc1ccccc1OCC(=O)Nc1nnc(SCc2cc(=O)n3cc(Cl)ccc3n2)s1`, the “activity change, negative = cytotoxicity” value was inactive: 15.9%.

On to `Cc1c(Cl)cccc1NC(=O)c1cc(S(=O)(=O)N2CCCCC2)cn1C`, for which the “activity change, negative = cytotoxicity” value was inactive: 2.53%.

Consider `Cc1ccc2oc(=O)c3cc(C(=O)Nc4ccc(C)c(F)c4)sc3c2c1`, for which the “activity change, negative = cytotoxicity” value is inactive: -4.73%.

For `CCc1nnc(NC(=O)CSc2nc3c([nH]c4ccccc43)c(=O)n2-c2ccc(F)cc2)s1`, the “activity change, negative = cytotoxicity” value is inactive: 4.32%.

For the molecule `COc1ccccc1/C=C/c1onc(C)c1S(=O)(=O)N1CCC(C(=O)N2CCC(C)CC2)CC1`, the “activity change, negative = cytotoxicity” value was inactive: -1.88%.

`Cc1ccccc1NC(=O)CSc1nc2ccc(NC(=O)CCc3ccccc3)cc2s1`: the “activity change, negative = cytotoxicity” value was inactive: 13.6%.

Consider `COC(=O)c1sccc1S(=O)(=O)N(CC(=O)Nc1ccccc1C)c1ccc(Cl)cc1`, for which the “activity change, negative = cytotoxicity” value is inactive: -2.68%.

On to `Cc1cccn2c(=O)cc(COc3ccc(NC(=O)C(C)C)cc3)nc12`, for which the “activity change, negative = cytotoxicity” value was inactive: 14.7%.
